Laboratory results: the supplement of paper PMC4604168 (melanoma cell lines)
This is one part of the list. Many values rest on one well or one pass, so single values are uncertain.

test system: SkMel28; assay: cell count relative to DMSO control; melanoma cells; higher = more viable cells; conditions: library dose: standard library concentration; 72 h
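Note: cells treated in 1,536-well plates, then fixed and DAPI-stained, with nuclei counted from automated high-throughput microscope images.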

Structure (SMILES) | cell count [%]
Cn1cnc2c(F)c(Nc3ccc(Br)cc3Cl)c(C(=O)NOCCO)cc21 [selumetinib] + CCCCCCCCCCCC1=C(O)C(=O)C=C(O)C1=O [Embelin] (first compound 0.075 µM, partner dose 6 µM) | 44.2
CCN(CC)CCNC(=O)c1c(C)[nH]c(/C=C2\C(=O)Nc3ccc(F)cc32)c1C [sunitinib] + O=C(O)C(=O)Nc1sc2c(c1C(=O)O)CCNC2 [TCS401] (first compound 2 µM, partner dose 8.33333 µM) | 59.9
C[C@]1(O)C[C@@H](c2nc(-c3ccc4ccc(-c5ccccc5)nc4c3)c3c(N)nccn32)C1 + Oc1cc(-c2nc(-c3ccccc3)[nH]c2-c2ccncc2)ccc1Cl [L779450] (first compound 2 µM, partner dose 1 µM) | 38
COc1cc([C@@H]2c3cc4c(cc3[C@@H](O[C@@H]3O[C@@H]5CO[C@@H](C)O[C@H]5[C@H](O)[C@H]3O)[C@H]3COC(=O)[C@H]23)OCO4)cc(OC)c1O [etoposide] + COC(=O)c1sccc1S(=O)(=O)Nc1ccc(Nc2ccccc2)cc1OC [GSK0660] (first compound 0.1 µM, partner dose 5 µM) | 117

test system: SkMel2; assay: as above; conditions: library dose: standard library concentration; 72 h

Structure (SMILES) | cell count [%]
Cn1cnc2c(F)c(Nc3ccc(Br)cc3Cl)c(C(=O)NOCCO)cc21 [selumetinib] + Cc1cc([N+](=O)[O-])ccc1NS(=O)(=O)c1cc(Cl)ccc1Cl [FH535] (first compound 0.075 µM, partner dose 5 µM) | 52
Cn1cnc2c(F)c(Nc3ccc(Br)cc3Cl)c(C(=O)NOCCO)cc21 [selumetinib] + COc1cc2ncnc(Nc3ccc(Oc4ccccc4)cc3)c2cc1OC [SrcI1] (first compound 0.075 µM, partner dose 10 µM) | 60.9
C[C@]1(O)C[C@@H](c2nc(-c3ccc4ccc(-c5ccccc5)nc4c3)c3c(N)nccn32)C1 + CCc1ccc(CCOc2ccc(CC3SC(=O)NC3=O)cc2)nc1 [pioglitazone] (first compound 2 µM, partner dose 10 µM) | 71.3
CCN(CC)CCNC(=O)c1c(C)[nH]c(/C=C2\C(=O)Nc3ccc(F)cc32)c1C [sunitinib] + O=S(=O)(c1ccccc1)N(CC(F)(F)F)c1ccc(C(O)(C(F)(F)F)C(F)(F)F)cc1 [T0901317] (first compound 2 µM, partner dose 7 µM) | 61.8
Cn1cnc2c(F)c(Nc3ccc(Br)cc3Cl)c(C(=O)NOCCO)cc21 [selumetinib] + Oc1cc(-c2nc(-c3ccccc3)[nH]c2-c2ccncc2)ccc1Cl [L779450] (first compound 0.075 µM, partner dose 1 µM) | 7.48
C[C@]1(O)C[C@@H](c2nc(-c3ccc4ccc(-c5ccccc5)nc4c3)c3c(N)nccn32)C1 + N#Cc1c(O)c2c(-c3ccc(-c4ccccc4O)cc3)csc2[nH]c1=O [A769662] (first compound 2 µM, partner dose 10 µM) | 82
COc1cc([C@@H]2c3cc4c(cc3[C@@H](O[C@@H]3O[C@@H]5CO[C@@H](C)O[C@H]5[C@H](O)[C@H]3O)[C@H]3COC(=O)[C@H]23)OCO4)cc(OC)c1O [etoposide] + N#Cc1c(O)c2c(-c3ccc(-c4ccccc4O)cc3)csc2[nH]c1=O [A769662] (first compound 0.1 µM, partner dose 10 µM) | 68.2
CCN(CC)CCNC(=O)c1c(C)[nH]c(/C=C2\C(=O)Nc3ccc(F)cc32)c1C [sunitinib] + COc1ccc(-c2ccc3c(N4CCOCC4)nc(N4C[C@@H](C)O[C@@H](C)C4)nc3n2)cc1CO [KU0063794] (first compound 2 µM, partner dose 0.1 µM) | 61.4
CCN(CC)CCNC(=O)c1c(C)[nH]c(/C=C2\C(=O)Nc3ccc(F)cc32)c1C [sunitinib] + N#Cc1c(O)c2c(-c3ccc(-c4ccccc4O)cc3)csc2[nH]c1=O [A769662] (first compound 2 µM, partner dose 10 µM) | 65.9
Cn1cnc2c(F)c(Nc3ccc(Br)cc3Cl)c(C(=O)NOCCO)cc21 [selumetinib] + CCc1ccc(CCOc2ccc(CC3SC(=O)NC3=O)cc2)nc1 [pioglitazone] (first compound 0.075 µM, partner dose 10 µM) | 52.5
